Measured values reported in PubChem BioAssay AID686979 (National Center for Advancing Translational Sciences (NCATS), 2013).
In all, about 420,000 compounds went through this assay and about 50,000 (12%) were called active. Inconclusive results, whose numbers are uncertain, are shown with a selection of clear calls. Calls follow the shape of the dose curve; as a rule, active = well fitted inhibition curve with a large enough effect; inconclusive = small, poorly fitted or top-dose-only effect; inactive = flat fitted curve, though single readings scatter. Potencies of inconclusive entries are left out as doubtful fits.

Experiment: qHTS for Inhibitors of human tyrosyl-DNA phosphodiesterase 1 (TDP1): qHTS in cells in presence of CPT; also: nearly all actives have a fitted effect of over 55% in size
Settings: chicken DT40 Tdp1-/-;hTDP1 cells + 20 nM CPT, ATP luminescence, 48 h; series mostly up to 46.2 µM
Method in brief: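 Chicken DT40 Tdp1-/- cells stably complemented with human TDP1 were seeded at 400 cells/well in medium containing 20 nM camptothecin, exposed to pin-transferred compounds, and grown at 37 °C for at least 48 hr. Viability was read as ATP luminescence.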
Potency is read from the fitted curve at half-maximal effect; tags tell the direction and shape of the fitted curve.

Question: For `CCCCC(CC)C(=O)NCc1ccccc1OC` (stereo not drawn), which Potency is on record?
Answer: The Potency was inconclusive [inhibitor, single point].

Question: For `CC1=C(C(=O)OC(C)C)C(c2ccc(Br)s2)NC(=O)N1C` (stereo not drawn), which Potency is on record?
Answer: The Potency was inconclusive [inhibitor, single point].

Question: With `Cc1cc(C)cc(NC(=O)c2ccc(CSc3nnc(C)s3)cc2)c1` as the compound, how does the Potency read?
Answer: The Potency was inconclusive [inhibitor, partial curve].

Question: With `CCOc1ccc(CN(C(=O)c2oc3cc(C)ccc3c2C)C2CCS(=O)(=O)C2)cc1` (stereo not drawn) as the compound, how does the Potency read?
Answer: Its Potency is inconclusive [inhibitor, single point].

Question: For `COc1cccc(OCC(Cn2c(C)nc3ccccc32)OC(C)=O)c1` (stereo not drawn), which Potency is on record?
Answer: Its Potency is inconclusive [inhibitor, single point].

Question: With `CCN1CCN(c2ncnc3sc(C)c(-c4ccccc4)c23)CC1` as the compound, how does the Potency read?
Answer: The Potency was “inactive”.

Question: For `COC(=O)/C(=C(O)\C=C\c1ccccc1[N+](=O)[O-])c1nc2ccccc2[nH]1`, which Potency is on record?
Answer: The Potency was active: 11.6 µM.

Question: With `CC(C)=CCCC(C)CN1CCC(N2CCC(C(=O)N3CCCC3)CC2)CC1` (stereo not drawn) as the compound, how does the Potency read?
Answer: The Potency was inconclusive [inhibitor, single point].

Question: For `NS(=O)(=O)c1ccc(NC(=S)N2CCN(c3ccccc3Cl)CC2)cc1`, which Potency is on record?
Answer: Its Potency is inconclusive [inhibitor, single point].

Question: With `CC1=C(c2ccc(C)c(C)c2)S(=O)(=O)N=C1N1CCC(C(=O)NCCc2ccc(Cl)cc2)CC1` as the compound, how does the Potency read?
Answer: Its Potency is active: 13 µM.

Question: Which Potency does the source give for `CCC(=O)Oc1ccc2oc(=O)cc(C)c2c1` here?
Answer: The Potency was “inactive”.

Question: With `CCc1nc2ccc(C(=O)NCCc3ccccn3)cn2c1N(C)CCC(C)C` as the compound, how does the Potency read?
Answer: Its Potency is inconclusive [inhibitor, single point].

Question: Which Potency does the source give for `O=C(NCc1ccco1)C1CCCN(S(=O)(=O)c2cccc3cccnc23)C1` (stereo not drawn) here?
Answer: The Potency was inconclusive [inhibitor, single point].

Question: Which Potency does the source give for `COc1ccc(Cl)cc1NC(=O)CN(C)C(=O)c1sccc1-c1ccccc1` here?
Answer: The Potency was inconclusive [inhibitor, single point].

Question: For `Cc1cc(Nc2ccccc2)nc(N2CCN(C(=O)c3ccc4c(c3)OCO4)CC2)n1`, which Potency is on record?
Answer: Its Potency is inconclusive [inhibitor, single point].

Question: For `COc1ccc(S(=O)(=O)n2nc(-n3c(C)ccc3C)c3c(F)cccc32)cc1OC`, which Potency is on record?
Answer: The Potency was inconclusive [inhibitor, single point].

Question: For `COc1cc(Cl)c(C)cc1NC(=O)c1cc2ccc3cccnc3c2[nH]1`, which Potency is on record?
Answer: The Potency was inconclusive [inhibitor, single point].

Question: Which Potency does the source give for `CCCCn1c(=O)c(CCC(=O)OCC(=O)Nc2ccc(F)c(Cl)c2)nc2ccccc21` here?
Answer: The Potency was “inactive”.
